Among all 140,000 compounds or so, about 240 (0.17%) were called active. This list was built around the results that the source calls inconclusive (neither active nor inactive); the mix of calls is not that of the screen. Calls come from the whole dose curve; as a rule, active = well fitted inhibition curve with a large enough effect; inconclusive = small, poorly fitted or top-dose-only effect; inactive = no such curve, though single readings can be large or run the other way. A potency beside an inconclusive call is a rough fit, not a confirmed value.
Experiment: Primary qHTS assay for inhibitors of alpha-synuclein gene (SNCA) expression; note: nearly all actives have a fitted effect of over 45% in size
Conditions: HEK-293 SNCA-luciferase knock-in, luminescence, 24 h; series mostly up to 57.2 µM
Potency is the fitted concentration of half-maximal effect; tags give direction and shape of the fitted curve.

SMILES	Potency
O=C(Cc1c[nH]c2ncc(-c3ccccc3)cc12)Nc1cccnc1	inconclusive: 56.2 µM [inhibitor, single point]
O=C(Cc1c[nH]c2ncc(-c3cccnc3)cc12)N1CCN(c2ccccn2)CC1	inactive
O=c1[nH]nc2n1CCCCC2	inactive
O=C(NCc1nnc2ccc(-c3ccccc3)nn12)c1ccco1	inactive
CC(=O)Nc1ccc(-c2nnc3n(CC(C)C)c(=O)c4ccccc4n23)cc1	inconclusive: 3.55 µM [inhibitor, single point]
CC(C)CCN1C(=O)CC[C@]2(C(=O)NCCc3cccnc3)CCCC[C@@H]12	inactive
Cc1ccc(-c2cn3cc(C(=O)NCC4CC4)nc3s2)cc1	inactive
CCN(Cc1ccccc1)C(=O)c1cc2c(N3CCCC3)nc(C)cn2n1	inactive
O=C(OCc1ccccc1)N1CCn2ncc(C(=O)N3CCOCC3)c2C1	inconclusive: 2.82 µM [inhibitor, full curve]
Cc1nc(C)c(C(=O)N2CCCC(C(=O)NCc3ccccc3)CCNC(=O)CC2)s1 (stereo unspecified)	inconclusive: 31.6 µM [inhibitor, single point]
COC(=O)C1=C(C)NC(=O)NC1c1cn(-c2ccccc2)nc1-c1ccc(OC)c(Cl)c1 (stereo unspecified)	inconclusive: 39.8 µM [inhibitor, single point]
O=C(NCC1CCCO1)C1CCN(C(=O)c2ncn3c2COC(c2ccc(F)cc2)C3)CC1 (stereo unspecified)	inactive
CCc1ccc(C(=O)N2CCC(Cc3nc(-c4ccc(F)cc4)no3)CC2)cc1	inconclusive: 10 µM [inhibitor, partial curve, poor fit]
COCCN1CCCCCC(O)c2cc(C(=O)NCc3ccc(F)cc3)ccc21 (stereo unspecified)	inconclusive: 39.8 µM [inhibitor, single point]
CN(C)CCn1nnnc1SCC1=C(C(=O)O)N2C(=O)[C@@H](NC(=O)Cc3csc(N)n3)[C@H]2SC1	inactive
CC(=O)Nc1ccc(NC(=O)Cn2cccc2-c2nc(-c3ccc(F)cc3)no2)cc1	inconclusive: 10 µM [inhibitor, partial curve, poor fit]
O=C(C1CC1)N1CCc2nc(-c3ccc(Cl)cc3)nc(-c3ccccc3)c2C1	inactive
CCC[C@@H]1CN(c2nc(SC)ncc2C(=O)OCC)C[C@H]1N(C)C	inconclusive: 35.5 µM [inhibitor, single point]
CC(C)NC(=O)c1cnc2c(c1)N(C(=O)Cc1cccc(C(F)(F)F)c1)CCC2	inactive
COc1ccc(C(=O)Nc2ccc(-c3noc([C@@H]4CCCN4Cc4c[nH]c5ccccc45)n3)cn2)cc1	inconclusive: 39.8 µM [inhibitor, single point]
COc1ccccc1-c1cc(-c2cn[nH]c2)c2onc(C)c2n1	inconclusive: 15.8 µM [inhibitor, partial curve, poor fit]
COc1ccc(CN2CCc3nc(N4CCOCC4)[nH]c(=O)c3CC2)cc1Br	inconclusive: 7.08 µM [inhibitor, single point]

SMILES	Potency
O[C@@H]1C[C@@H](c2nc(-c3ccc4c(c3)OCO4)no2)N(Cc2ccccc2)C1	inactive
CC(C)NC[C@H]1Cn2c(-c3cccc(Cl)c3)cnc2CO1	inactive
O=C1CC(c2ccccc2)N(C(=O)CNC(=O)c2[nH]nc3c2COc2ccccc2-3)CCCCCN1 (stereo unspecified)	inactive
c1ccc(-c2cc3c(ccn3Cc3ccncc3)c(N3CCOCC3)n2)cc1	inconclusive: 3.55 µM [inhibitor, full curve]
COc1cccc(CN2CCOC3CCN(C(=O)c4ccccc4)CC3C2=O)c1 (stereo unspecified)	inconclusive: 56.2 µM [inhibitor, single point]
O=C1CCN(Cc2ccc(C(F)(F)F)cc2)CCCC(c2nc(-c3cccnc3)no2)CCN1 (stereo unspecified)	inactive
CCN(CC)c1ccc(-c2nc(-c3ccccn3)no2)cc1[N+](=O)[O-]	inconclusive: 4.47 µM [inhibitor, full curve, poor fit]
COC(=O)C1CCN(c2csc3ccc(C)cc3c2=O)CC1	inactive
COc1ccc(-c2cn3cc(C(=O)NCc4cccc(C(F)(F)F)c4)nc3s2)cc1	inactive
COCCN1C(=O)CC[C@]2(C(=O)NCc3cc(F)ccc3F)CCCC[C@@H]12	inconclusive: 39.8 µM [inhibitor, single point]
COc1ccc(C(=O)N[C@@H]2CCC[C@@H]2C(=O)N2CCN(c3cccc(Cl)c3)CC2)cn1	inconclusive: 28.2 µM [inhibitor, single point]
O=C1CCC2(CCCO2)CCN1Cc1ccccc1 (stereo unspecified)	inconclusive: 8.91 µM [inhibitor, single point]
COc1ccc(C(=O)NCc2nnc3c(-c4nc(C5CC5)no4)cccn23)c(C)c1	inconclusive: 1.78 µM [inhibitor, partial curve, poor fit]
O=C(NCc1nnc2ccc(-c3ccccc3)nn12)c1ccoc1	inconclusive: 2 µM [inhibitor, partial curve, poor fit]
CCc1ccc(N2CC(c3noc(-c4sccc4C)n3)CC2=O)cc1 (stereo unspecified)	inactive
CCOc1ccc(Nc2c(S(=O)(=O)c3ccccc3)cnc3ccc(CC)cc23)cc1	inconclusive: 39.8 µM [inhibitor, single point]
Cc1c(-c2ccccc2)[nH]c2c(CNC(=O)CCc3nncn3C)cc(Cl)cc12	inactive
CC(C)Oc1ccc2c(NC(=O)CN3CCOCC3)nn(CC(F)(F)F)c2c1	inconclusive: 3.16 µM [inhibitor, full curve, poor fit]
COc1ccc(CCNC(=O)Cn2nc(-c3ccc(Cl)cc3)ccc2=O)cc1OC	inconclusive: 17.8 µM [inhibitor, partial curve, poor fit]
Cc1cccc(CN2CCCC(C(=O)Nc3cccc(-n4cccn4)c3)C2)n1 (stereo unspecified)	inconclusive: 39.8 µM [inhibitor, single point]
O=C(Nc1ccc(F)cc1)c1ccc2oc(-c3ccncc3)nc2c1	inactive
COc1cc([N+](=O)[O-])ccc1NC(=O)N1CCC2(CC1)Nc1cc(F)ccc1-n1cccc12	inconclusive: 22.4 µM [inhibitor, single point]

SMILES	Potency
COc1ccc(S(=O)(=O)NC[C@H]2Cn3c(-c4ccc(Cl)cc4)cnc3CO2)cc1	inactive
COCCNC(=O)[C@@H]1CCC[C@@H](NC(=O)C2CC2)CN(C)C(=O)C1	inconclusive: 31.6 µM [inhibitor, partial curve, poor fit]
Cc1cccc(C(=O)N2CCC(CC(=O)NCc3ccccc3)C2)c1 (stereo unspecified)	inconclusive: 1.41 µM [inhibitor, full curve, poor fit]
N#Cc1ccc(CN2CCCC3(CCN(C(=O)c4ccco4)CC3)C2)cc1	inconclusive: 8.91 µM [inhibitor, full curve]
Cc1cc(=O)n(CC(=O)Nc2ccc(Br)cc2F)c(N(C)Cc2ccccc2)n1	inconclusive: 8.91 µM [inhibitor, partial curve, poor fit]
O=C(NC1CCN(C(=O)c2ccc(-c3cccs3)cc2)CC1)c1ccccn1	inactive
CCOC(=O)c1ccc(NC(=O)C(CC)Sc2nncn3c2cc2oc(C)cc23)cc1 (stereo unspecified)	inconclusive: 6.31 µM [inhibitor, single point]
CCNC(=O)NC[C@@H]1C=C(C)[C@H](Cc2nnc(-c3ccccc3F)o2)C[C@H]1C(C)C	inconclusive: 2 µM [inhibitor, partial curve, poor fit]
Cc1ccc([S+](=O)([O-])NC2CCN(C(=O)c3ccc(-c4cncnc4)cc3)CC2)cc1	inconclusive: 3.55 µM [inhibitor, partial curve, poor fit]
CC(C)c1ccc(NC(=O)c2cc(S(=O)(=O)NCCC3=CCCCC3)ccc2F)cc1	inconclusive: 39.8 µM [inhibitor, single point]
O=S(=O)(Nc1cccc(Cl)c1)c1ccc2[nH]c3c(c2c1)CCCCCC3	inconclusive: 39.8 µM [inhibitor, single point]
CC(C)CCNC(=O)Cn1ccn2nc(-c3ccccc3)c(CO)c2c1=O	inconclusive: 31.6 µM [inhibitor, single point]
N#C/C(=C\c1ccc(-c2ccccc2C(=O)O)o1)c1nc2ccccc2[nH]1	inconclusive: 39.8 µM [inhibitor, single point]
COc1ccc(Nc2ccnc(N3CCN([S+](=O)([O-])c4cccs4)CC3)n2)cc1	inactive
COC(=O)c1c(C)oc2ccc(N(C(=O)c3ccncc3)S(=O)(=O)c3cc(C)c(C)cc3C)cc12	inconclusive: 15.8 µM [inhibitor, partial curve, poor fit]
CCc1ccc(N2CC(c3noc(-c4ccccn4)n3)CC2=O)cc1 (stereo unspecified)	inactive
CCOC(=O)N1CCC(NC(=O)c2ccc3c(c2)N(Cc2cccc(C)c2)C(=O)c2ccccc2S3(=O)=O)CC1	inconclusive: 44.7 µM [inhibitor, partial curve, poor fit]
CCOC(=O)c1c(S(=O)(=O)N2CCC(C(=O)N3CCN(c4cccc(C)c4C)CC3)CC2)c(C)n(C)c1C	inconclusive: 39.8 µM [inhibitor, single point]
O=C(c1ccc(F)cc1)N1CCN(Cc2ccccc2-c2ccccc2F)CC1	inactive
COC[C@@H]1CN(c2ncccn2)C[C@H]1C(=O)NCc1ccccc1OC	inactive
CCOc1ccc(CCNC(=O)CCCc2cc(-c3ccc(OCC)cc3)on2)cc1	inactive
O=C1NCCCCCCN(Cc2ccc(F)cc2F)[C@H]2CCC[C@@H]12	inconclusive: 1.78 µM [inhibitor, partial curve, poor fit]

From PubChem BioAssay AID1671194 (National Center for Advancing Translational Sciences (NCATS), 2021)
